Assay results as given in the supplement of paper PMC12582362.
Where a name gives a salt, the structure may show the parent alone. About 30 (2%) of roughly 1,500 compounds showed activity.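 How the source made its calls: active = robust z-score below -2; a few such results were not called.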 The list shows a part of the results.

The compounds below were run on optoTopBP1 Flp-In 293 T-REx (HEK293) cells (assay: light-induced TopBP1 condensate (nuclear foci) count, plate-normalised robust z-score vs non-control wells; higher = more TopBP1 condensates (negative = condensation inhibitor), active = hit call of the paper). Details: 10 µM; incubation time 2 h.

| Structure (SMILES) | light-induced TopBP1 condensate (z-score) |
| --- | --- |
| Nc1ccc(S(=O)(=O)Nc2ccc(Cl)nn2)cc1 [Sulfachloropyridazine] | inactive: -0.653 |
| COc1cc2nc(N3CCN(C(=O)C4CCCO4)CC3)nc(N)c2cc1OC (stereo unspecified) [Terazosin hydrochloride] | inactive: 0.637 |
| C[N+]1(C)CCC(=C(c2ccccc2)c2ccccc2)CC1 [Diphemanil methylsulfate] | inactive: 0.515 |
| NS(=O)(=O)c1cc2c(cc1Cl)NCNS2(=O)=O [Hydrochlorothiazide] | inactive: -0.0762 |
| CN(C)CCC=C1c2ccccc2C=Cc2ccccc21 [Cyclobenzaprine hydrochloride] | inactive: 0.551 |
| COc1ccc(-c2noc(CC(=O)O)c2-c2ccc(OC)cc2)cc1 [Mofezolac] | inactive: 0.854 |
| CN(C)CCc1c[nH]c2ccc(C[C@H]3COC(=O)N3)cc12 [Zolmitriptan] | inactive: 0.251 |
| O=c1[nH]c(=O)n([C@H]2C[C@H](O)[C@@H](CO)O2)cc1F [Floxuridine] | inactive: 0.191 |
| CNNCc1ccc(C(=O)NC(C)C)cc1 [Procarbazine hydrochloride] | inactive: 0.0724 |
| COc1cc(C)c(/C=C/C(C)=C/C=C/C(C)=C/C(=O)O)c(C)c1C [Acitretin] | inactive: 0.574 |
| CC(C)OC(=O)CCC/C=C\C[C@@H]1[C@@H](CC[C@@H](O)CCc2ccccc2)[C@H](O)C[C@@H]1O [Latanoprost] | inactive: -0.272 |
| CC(=O)Oc1cc(C(C)C)c(OCCN(C)C)cc1C [Moxisylyte hydrochoride] | inactive: 1.45 |
| CC(c1cc2ccccc2s1)N(O)C(N)=O (stereo unspecified) [Zileuton] | inactive: 1.35 |
| CCn1cc(C(=O)O)c(=O)c2cc(F)c(N3CCN(C)CC3)cc21 [Pefloxacine] | inactive: 1.26 |
| Cc1ccc(S(=O)(=O)NCl)cc1 [Chloramine-T hydrate] | inactive: -1.44 |
| COc1cc(N)cn[n+]1-c1ccccc1 [Amezinium metilsulfate] | inactive: 0.428 |
| C[C@@H]1CN(c2c(F)c(N)c3c(=O)c(C(=O)O)cn(C4CC4)c3c2F)C[C@H](C)N1 [Sparfloxacin] | inactive: -0.367 |
| C[C@]12C=CC(=O)C=C1CC[C@@H]1[C@@H]2C(=O)C[C@@]2(C)[C@H]1CC[C@]2(O)C(=O)CO [Prednisone] | inactive: 0.993 |
| CS(=O)(=O)Nc1ccc([N+](=O)[O-])cc1Oc1ccccc1 [Nimesulide] | inactive: -0.0652 |
| COc1cc(C)nc(-n2nc(C)cc2OC)n1 [Epirizole] | inactive: -0.0326 |
| CCn1cc(C(=O)O)c(=O)c2cc(F)c(N3CCNC(C)C3)c(F)c21 (stereo unspecified) [Lomefloxacin hydrochloride] | inactive: 0.191 |
| NC(=O)c1cc[n+](CC2=C(C(=O)O)N3C(=O)[C@@H](NC(=O)C(c4ccccc4)S(=O)(=O)[O-])[C@H]3SC2)cc1 (stereo partly specified) [Cefsulodin Sodium Salt Hydrate] | inactive: -0.446 |

| Structure (SMILES) | light-induced TopBP1 condensate (z-score) |
| --- | --- |
| CNC(=C[N+](=O)[O-])NCCSCc1csc(CN(C)C)n1 [Nizatidine] | inactive: -0.771 |
| CC(C)CN(C[C@@H](O)[C@H](Cc1ccccc1)NC(=O)O[C@H]1CCOC1)S(=O)(=O)c1ccc(N)cc1 [Amprenavir] | inactive: 1.18 |
| CNCCC=C1c2ccccc2CCc2ccccc21 [Nortriptyline hydrochloride] | inactive: -0.909 |
| C[C@H]1[C@H](NC(=O)/C(=N\OC(C)(C)C(=O)O)c2csc(N)n2)C(=O)N1S(=O)(=O)O [Aztreonam] | inactive: -0.276 |
| CCc1c2c(nc3ccc(OC(=O)N4CCC(N5CCCCC5)CC4)cc13)-c1cc3c(c(=O)n1C2)COC(=O)[C@]3(O)CC [Irinotecan hydrochloride trihydrate] | inactive: 1.07 |
| CC(C)(O/N=C(\C(=O)N[C@@H]1C(=O)N2C(C(=O)[O-])=C(C[n+]3ccccc3)CS[C@H]12)c1csc(N)n1)C(=O)O [Ceftazidime pentahydrate] | inactive: 0.278 |
| Cc1c(Cl)cccc1Nc1ncccc1C(=O)O [Clonixin Lysinate] | inactive: 0.77 |
| CCc1oc2ccccc2c1C(=O)c1cc(I)c(O)c(I)c1 [Benziodarone] | inactive: -0.0729 |
| CN1CCN(C(c2ccccc2)c2ccc(Cl)cc2)CC1 (stereo unspecified) [Chlorcyclizine hydrochloride] | inactive: 0.227 |
| O=C(N/N=C/c1ccc([N+](=O)[O-])o1)c1ccc(O)cc1 [Nifuroxazide] | inactive: -1.09 |
| CC(C)(C)NCC(O)CSc1nc(-c2ccc(C(N)=O)s2)cs1 (stereo unspecified) [Arotinolol hydrochloride] | inactive: -0.455 |
| NC(=O)c1ncn([C@@H]2O[C@H](CO)[C@@H](O)[C@H]2O)c1O [Mizoribine] | inactive: -0.419 |
| CCC(=O)[C@@]1(C)[C@H](C)C[C@H]2[C@@H]3CCC4=CC(=O)C=C[C@]4(C)[C@H]3[C@@H](O)C[C@@]21C [Rimexolone] | inactive: -0.191 |
| CC(=O)Nc1c(I)c(NC(C)=O)c(I)c(C(=O)O)c1I [Diatrizoic acid dihydrate] | inactive: -0.965 |
| CCc1cc(C(N)=S)ccn1 [Ethionamide] | inactive: 0.448 |
| CN(N=O)C(=O)N[C@@H](C=O)[C@@H](O)[C@H](O)[C@H](O)CO [Streptozotocin] | inactive: 1.22 |
| N[C@H](Cc1ccccc1)C(=O)O [D-phenylalanine] | inactive: -1.1 |
| CCOC(=O)Nc1ccc2c(c1)N(C(=O)CCN1CCOCC1)c1ccccc1S2 [Moricizine hydrochloride] | inactive: 2.02 |
| COC(=O)[C@H]1[C@H]2C[C@@H]3c4[nH]c5cc(OC)ccc5c4CCN3C[C@H]2C[C@@H](OC(=O)c2cc(OC)c(OC)c(OC)c2)[C@@H]1OC [Reserpine] | inactive: -0.957 |
| CC(C)C[C@H](NC(=O)[C@@H](O)[C@H](N)Cc1ccccc1)C(=O)O [Ubenimex] | inactive: -0.837 |
| CCOC(=O)[C@H](CCc1ccccc1)N[C@@H](C)C(=O)N1[C@H](C(=O)O)C[C@H]2CCCC[C@@H]21 [Trandolapril] | inactive: 0.596 |
| CCOc1ccccc1C(N)=O [Ethenzamide] | inactive: -0.0402 |

| Structure (SMILES) | light-induced TopBP1 condensate (z-score) |
| --- | --- |
| CCN(CC)CCCC(C)Nc1c2ccc(Cl)cc2nc2ccc(OC)cc12 (stereo unspecified) [Quinacrine dihydrochloride hydrate] | active: -3.15 |
| Cc1nc(C)c(Cl)c(O)c1Cl [Clopidol] | inactive: 0.31 |
| CCCCCCCCCCCCCCCC[N+](C)(C)CCN(Cc1ccc(OC)cc1)c1ncccn1 [Thonzonium bromide] | active: -2.49 |
| CC(C)NCC(O)c1ccc(NS(C)(=O)=O)cc1 (stereo unspecified) [Sotalol hydrochloride] | inactive: -0.108 |
| C#C[C@]1(O)CC[C@H]2[C@@H]3CCc4cc(OC)ccc4[C@H]3CC[C@@]21C [Ethynylestradiol 3-methyl ether] | inactive: -0.145 |
| CC(=O)N1CCN(c2ccc(OCC3COC(Cn4ccnc4)(c4ccc(Cl)cc4Cl)O3)cc2)CC1 (stereo unspecified) [Ketoconazole] | inactive: 0.453 |
| CN(CCOc1ccc(NS(C)(=O)=O)cc1)CCc1ccc(NS(C)(=O)=O)cc1 [Dofetilide] | inactive: -1.07 |
| CCN(CC)CCOC(=O)C1(c2ccc([N+](=O)[O-])cc2)CCCC1 [Nitrocaramiphen hydrochloride] | inactive: 0.714 |
| Nc1ccc(O)c(C(=O)O)c1 [Mesalamine] | inactive: -0.121 |
| Cc1cc(NC(=O)C2=C(O)c3ccccc3S(=O)(=O)N2C)no1 [Isoxicam] | inactive: 0.298 |
| Cc1cc(C(C)(C)CC(C)(C)C)ccc1OCCOCC[N+](C)(C)Cc1ccccc1 [Methyl benzethonium chloride] | inactive: -0.593 |
| CO[C@@]1(NC(=O)C2SC(=C(C(N)=O)C(=O)O)S2)C(=O)N2C(C(=O)O)=C(CSc3nnnn3C)CS[C@@H]21 (stereo partly specified) [Cefotetan] | inactive: 0.425 |
| CN(C)CCCN1c2ccccc2CCc2ccc(Cl)cc21 [Clomipramine hydrochloride] | inactive: -1.47 |
| C#C[C@]1(OC(C)=O)CC[C@H]2[C@@H]3CCC4=C[C@@H](OC(C)=O)CC[C@@H]4[C@H]3CC[C@@]21C [Ethynodiol diacetate] | inactive: -0.982 |
| Nc1ccc(S(=O)(=O)Nc2ncccn2)cc1 [Sulfadiazine] | inactive: 0.227 |
| CO[C@@]1(NC(=O)C(C(=O)O)c2ccc(O)cc2)C(=O)N2C(C(=O)O)=C(CSc3nnnn3C)CO[C@@H]21 (stereo partly specified) [Moxalactam disodium salt] | inactive: 0.553 |
| C#C[C@]1(O)CC[C@H]2[C@@H]3CCC4=CC(=O)CC[C@@H]4[C@H]3CC[C@@]21C [Norethindrone] | inactive: 0.453 |
| O=C(O)CNC(=O)c1ccccc1 [Hippuric acid] | inactive: 0.739 |
| CC(=O)O[C@]1(C(C)=O)CC[C@H]2[C@@H]3C=C(C)C4=CC(=O)CC[C@@H]4[C@H]3CC[C@@]21C [Nomegestrol acetate] | inactive: -0.776 |
| NS(=O)(=O)c1cc2c(cc1Cl)N=C(CSCc1ccccc1)NS2(=O)=O [Benzthiazide] | inactive: -0.0882 |
| O=C1C(CC[S+]([O-])c2ccccc2)C(=O)N(c2ccccc2)N1c1ccccc1 (stereo unspecified) [Sulfinpyrazone] | inactive: -0.953 |
| CC(=O)Oc1cc(C(F)(F)F)ccc1C(=O)O [Triflusal] | inactive: 0.263 |
